Measured values as given in the supplement of paper PMC8728848.
Some of the results follow.

What was measured:
Test in all cases: glycan array binding signal (z-score within array); higher = stronger binding
Conditions in all cases: glycan notation: IUPAC condensed, linker removed
[1] = molecular target: Gal(b1-4)GlcNAc(b1-2)Man(a1-3)[Gal(b1-4)GlcNAc(b1-2)Man(a1-6)]Man(b1-4)GlcNAc(b1-4)GlcNAc
Procedure, shortened: (§1)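 The Consortium for Functional Glycomics database supplied 3228 glycan arrays, of which those lacking an available protein sequence were dropped. The binding signal, a within-array Z-score, was averaged across arrays of the same protein sequence and across linkers. Negative scores can be read as non-binding.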

[2] = molecular target: Gal(b1-4)GlcNAc(b1-3)Gal(b1-4)Glc
Procedure, shortened: as §1

[3] = molecular target: Gal(b1-4)GlcNAc(b1-3)Gal(b1-4)GlcNAc
Procedure, shortened: as §1

[4] = molecular target: Gal(b1-4)GlcNAc(b1-3)Gal(b1-4)GlcNAc(b1-3)Gal(b1-4)GlcNAc
Procedure, shortened: as §1

[5] = molecular target: Gal(b1-4)GlcNAc(b1-3)Gal(b1-4)[Fuc(a1-3)]GlcNAc(b1-3)Gal(b1-4)[Fuc(a1-3)]GlcNAc
Procedure, shortened: as §1

[6] = molecular target: Gal(b1-4)GlcNAc(b1-3)GalNAc
Procedure, shortened: as §1

[7] = molecular target: Gal(b1-4)GlcNAc(b1-3)[Gal(b1-4)GlcNAc(b1-6)]GalNAc
Procedure, shortened: as §1

[8] = molecular target: Gal(b1-4)GlcNAc(b1-6)GalNAc
Procedure, shortened: as §1

[9] = molecular target: Gal(b1-4)GlcNAc(b1-6)[Gal(b1-3)]GalNAc
Procedure, shortened: as §1

[10] = molecular target: Gal(b1-4)GlcNAc(b1-6)[Gal(b1-3)]GlcNAc
Procedure, shortened: as §1

[11] = molecular target: Gal3S(b1-3)GalNAc
Procedure, shortened: as §1

[12] = molecular target: Gal3S(b1-3)GlcNAc
Procedure, shortened: as §1

[13] = molecular target: Gal3S(b1-3)[Fuc(a1-4)]GlcNAc
Procedure, shortened: as §1

[14] = molecular target: Gal3S(b1-4)Glc
Procedure, shortened: as §1

[15] = molecular target: Gal3S(b1-4)Glc6S
Procedure, shortened: as §1

[16] = molecular target: Gal3S(b1-4)GlcNAc
Procedure, shortened: as §1

[17] = molecular target: Gal3S(b1-4)GlcNAc6S
Procedure, shortened: as §1

[18] = molecular target: Gal3S6S(b1-4)GlcNAc
Procedure, shortened: as §1

[19] = molecular target: Gal3S6S(b1-4)GlcNAc6S
Procedure, shortened: as §1

[20] = molecular target: Gal4S(b1-4)GlcNAc
Procedure, shortened: as §1

[21] = molecular target: Gal4S6S(b1-4)GlcNAc
Procedure, shortened: as §1

[22] = molecular target: Gal6S(b1-4)Glc
Procedure, shortened: as §1

[23] = molecular target: Gal6S(b1-4)Glc6S
Procedure, shortened: as §1

[24] = molecular target: Gal6S(b1-4)GlcNAc
Procedure, shortened: as §1

[25] = molecular target: GalNAc(a1-3)Gal
Procedure, shortened: as §1

[26] = molecular target: GalNAc(a1-3)GalNAc
Procedure, shortened: as §1

[27] = molecular target: GalNAc(b1-3)Gal(a1-4)Gal(b1-4)GlcNAc
Procedure, shortened: as §1

[28] = molecular target: GalNAc(b1-4)GlcNAc
Procedure, shortened: as §1

[29] = molecular target: Glc(a1-4)Glc
Procedure, shortened: as §1

[30] = molecular target: Glc(a1-6)Glc(a1-6)Glc
Procedure, shortened: as §1

[31] = molecular target: Glc(b1-4)Glc
Procedure, shortened: as §1

[32] = molecular target: Glc(b1-6)Glc
Procedure, shortened: as §1

[33] = molecular target: GlcA(b1-3)Gal
Procedure, shortened: as §1

[34] = molecular target: GlcA(b1-6)Gal
Procedure, shortened: as §1

[35] = molecular target: GlcNAc(a1-3)Gal(b1-4)GlcNAc
Procedure, shortened: as §1

[36] = molecular target: GlcNAc(a1-6)Gal(b1-4)GlcNAc
Procedure, shortened: as §1

[37] = molecular target: GlcNAc(b1-2)Gal(b1-3)GlcNAc
Procedure, shortened: as §1

[38] = molecular target: GlcNAc(b1-2)Man(a1-3)[GlcNAc(b1-2)Man(a1-6)]Man(b1-4)GlcNAc(b1-4)GlcNAc
Procedure, shortened: as §1

[39] = molecular target: GlcNAc(b1-3)Gal
Procedure, shortened: as §1

[40] = molecular target: GlcNAc(b1-3)Gal(b1-3)GalNAc
Procedure, shortened: as §1

B1: HMGB1 (Rattus norvegicus), P63159 (protein)
chain: MGKGDPKKPRGKMSSYAFFVQTCREEHKKKHPDASVNFSEFSKKCSERWKTMSAKEKGKFEDMAKADKARYEREMKTYIPPKGETKKKFKDPNAPKRPPSAFFLFCSEYRPKIKGEHPGLSIGDVAKKLGEMWNNTAADDKQPYEKKAAKLKEKYEKDIAAYRAKGKPDAAKKGVVKAEKSKKKKEEEDDEEDEEDEEEEEEEEDEDEEEDDDDE
[1]
  glycan array binding signal (z-score): 0.168
[2]
  glycan array binding signal (z-score): 0.051
[3]
  glycan array binding signal (z-score): -0.641
[4]
  glycan array binding signal (z-score): -0.588
[5]
  glycan array binding signal (z-score): -0.054
[6]
  glycan array binding signal (z-score): -0.647
[7]
  glycan array binding signal (z-score): 0.497
[8]
  glycan array binding signal (z-score): -0.594
[9]
  glycan array binding signal (z-score): 0.225
[10]
  glycan array binding signal (z-score): 2.37
[11]
  glycan array binding signal (z-score): -0.4
[12]
  glycan array binding signal (z-score): -0.574
[13]
  glycan array binding signal (z-score): 0.205
[14]
  glycan array binding signal (z-score): -0.225
[15]
  glycan array binding signal (z-score): 0.187
[16]
  glycan array binding signal (z-score): 0.957
[17]
  glycan array binding signal (z-score): -0.518
[18]
  glycan array binding signal (z-score): -0.159
[19]
  glycan array binding signal (z-score): 0.389
[20]
  glycan array binding signal (z-score): -0.583
[21]
  glycan array binding signal (z-score): -0.337
[22]
  glycan array binding signal (z-score): -0.44
[23]
  glycan array binding signal (z-score): -0.435
[24]
  glycan array binding signal (z-score): 0.122
[25]
  glycan array binding signal (z-score): 0.597
[26]
  glycan array binding signal (z-score): -0.361
[27]
  glycan array binding signal (z-score): 2.44
[28]
  glycan array binding signal (z-score): -0.047
[29]
  glycan array binding signal (z-score): -0.351
[30]
  glycan array binding signal (z-score): -0.297
[31]
  glycan array binding signal (z-score): -0.597
[32]
  glycan array binding signal (z-score): -0.508
[33]
  glycan array binding signal (z-score): -0.66
[34]
  glycan array binding signal (z-score): 0.038
[35]
  glycan array binding signal (z-score): -0.403
[36]
  glycan array binding signal (z-score): -0.663
[37]
  glycan array binding signal (z-score): -0.577
[38]
  glycan array binding signal (z-score): 0.033
[39]
  glycan array binding signal (z-score): -0.129
[40]
  glycan array binding signal (z-score): -0.523
